Data: PubChem BioAssay AID488969 (Vanderbilt High Throughput Screening Facility, 2010)
In all, about 110,000 compounds were measured (“z-score”: median about -0.1, highest 2% from about 2 on). The list shows a part of the results.

These compounds were tested against Metabotropic glutamate receptor 8 (Rattus norvegicus) (UniProt P70579) (assay: rat mGluR8 modulators via GIRK flux, primary screen, cell-based, thallium flux, HTS (AID 488969)). Conditions: HEK293 rat mGluR8, GIRK (G protein-gated inwardly rectifying potassium channel) thallium flux, FluoZin2; at 10 µM; stronger effect = higher value; submaximal glutamate (EC20) added with thallium.
UniProt P70579, sequence (P70579 whole entry, looked up): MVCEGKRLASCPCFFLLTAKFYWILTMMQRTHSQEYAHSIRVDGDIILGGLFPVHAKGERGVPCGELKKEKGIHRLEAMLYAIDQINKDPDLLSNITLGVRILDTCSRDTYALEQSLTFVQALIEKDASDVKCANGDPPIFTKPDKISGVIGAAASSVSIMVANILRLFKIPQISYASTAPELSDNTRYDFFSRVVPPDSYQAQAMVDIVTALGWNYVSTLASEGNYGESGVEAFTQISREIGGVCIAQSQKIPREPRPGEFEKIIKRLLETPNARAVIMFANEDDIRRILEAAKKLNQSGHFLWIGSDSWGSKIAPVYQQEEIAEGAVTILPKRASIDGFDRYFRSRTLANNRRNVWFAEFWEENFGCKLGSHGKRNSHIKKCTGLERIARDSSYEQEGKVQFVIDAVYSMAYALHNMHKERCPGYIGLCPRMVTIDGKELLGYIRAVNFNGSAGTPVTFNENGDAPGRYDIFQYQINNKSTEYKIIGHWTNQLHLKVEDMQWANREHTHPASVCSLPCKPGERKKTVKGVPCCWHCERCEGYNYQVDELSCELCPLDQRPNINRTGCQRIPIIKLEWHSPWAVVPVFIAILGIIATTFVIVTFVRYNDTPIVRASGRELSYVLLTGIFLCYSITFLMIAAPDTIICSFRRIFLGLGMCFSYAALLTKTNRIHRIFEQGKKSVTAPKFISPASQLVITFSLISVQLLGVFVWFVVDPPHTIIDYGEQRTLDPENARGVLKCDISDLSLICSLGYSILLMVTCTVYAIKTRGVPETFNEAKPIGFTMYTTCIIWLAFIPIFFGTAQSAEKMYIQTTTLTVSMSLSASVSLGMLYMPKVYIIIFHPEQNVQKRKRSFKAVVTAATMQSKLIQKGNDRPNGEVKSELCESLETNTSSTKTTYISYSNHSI

Q: `O=C(Nc1ccccc1)N(Cc1ccccc1)Cc1ccccc1` was tested. Which z-score did it give?
A: The z-score was -0.268.

Q: Which z-score does the source give for `O=C(CSc1nnc(-c2ccncc2)n1Cc1ccccc1)Nc1nccs1` here?
A: The z-score was -0.69.

Q: Which z-score does the source give for `CC(=O)N1CCN(c2nc(CC(C)C)c3c(c2C#N)CCC3)CC1` here?
A: Its z-score is -1.22.

Q: Which z-score does the source give for `O=C(C1=C[C@@H]2[C@H]3C(=O)N(c4ccccc4Cl)C(=O)[C@H]3[C@@H](C(=O)c3ccc(Cl)cc3)N2C=C1)c1ccccc1` here?
A: Its z-score is -0.166.

Q: With `COc1ccc(Br)cc1S(=O)(=O)N(CC(=O)N1CCOCC1)c1ccccc1` as the compound, how does the z-score read?
A: The z-score was 0.619.

Q: For `Cc1cccc(-n2c(C)cc(/C=C3\C(=N)N4N=C(CC(C)C)SC4=NC3=O)c2C)c1`, which z-score is on record?
A: Its z-score is -0.0124.

Q: `O=C(CSC1=Nc2ccccc2C2=NC(CC(=O)NCc3ccco3)C(=O)N12)NCC1CCCO1` (stereo unspecified) was tested. Which z-score did it give?
A: The z-score was -0.919.

Q: How did the z-score turn out when `O=C(O)CCN1C(=O)C(=C2CCCCCC2)SC1=S` was run?
A: The z-score was 0.174.

Q: For `CC1(C)Cn2c(nnc2-c2ccccc2)S1`, which z-score is on record?
A: The z-score was -0.598.

Q: With `N#Cc1ccc2ccn(CC(=O)NC3CCCCC3)c2c1` as the compound, how does the z-score read?
A: The z-score was -0.34.

Q: How did the z-score turn out when `COc1cc2c(cc1OC)C1(CCCC1)C(N)=C2C#N` was run?
A: The z-score was -0.0387.

Q: Which z-score does the source give for `Cc1occc1-c1nnc(SCC(=O)Nc2nc3ccccc3s2)o1` here?
A: The z-score was -0.0715.

Q: For `COc1ccc(CN2CCCCC2C)cc1OC` (stereo unspecified), which z-score is on record?
A: The z-score was 0.00608.

Q: How did the z-score turn out when `Cc1oc(-c2cccc(Cl)c2)nc1CN1CCC(C(=O)NCC2CCCO2)CC1` (stereo unspecified) was run?
A: The z-score was -0.375.

Q: `CN1CCOc2cc(S(=O)(=O)Nc3ccc(F)cc3)ccc21` was tested. Which z-score did it give?
A: Its z-score is -0.576.

Q: For `Cc1ccc(C(=O)C(NC(=O)c2ccco2)Nc2sc3c(c2C(N)=O)CCCC3)cc1` (stereo unspecified), which z-score is on record?
A: Its z-score is -0.0556.

Q: `O=C(Oc1cccnc1)c1ccc(Cl)cc1` was tested. Which z-score did it give?
A: Its z-score is 0.69.

Q: `Cc1cccc(C(=O)N[C@H](C(=O)OCc2cc(=O)n3c(n2)sc2ccccc23)C(C)C)c1` was tested. Which z-score did it give?
A: Its z-score is -0.334.

Q: How did the z-score turn out when `COc1cccc(-c2nc(NCC3CCCO3)c3ccccc3n2)c1O` (stereo unspecified) was run?
A: Its z-score is -1.4.

Q: `O=c1oc2ccccc2cc1-c1nc2c(s1)CCc1ccccc1-2` was tested. Which z-score did it give?
A: Its z-score is -0.0605.

Q: How did the z-score turn out when `CCCc1cc(=O)n2[nH]c(-c3ccco3)nc2n1` was run?
A: Its z-score is -0.487.

Q: `O=C(Cc1c(F)cccc1Cl)c1ccc(O)cc1O` was tested. Which z-score did it give?
A: Its z-score is 0.0496.

Q: Which z-score does the source give for `OCCN1CCN(CC(O)COc2ccc3c(c2)OCO3)CC1` (stereo unspecified) here?
A: The z-score was 0.153.

Q: For `COc1ccc(C(NC(=O)/C=C/c2ccco2)c2ccc(OC)cc2)cc1`, which z-score is on record?
A: Its z-score is -0.228.

Q: For `NC(=O)c1sc2nc3c(c(-c4ccc(Cl)cc4)c2c1N)CCCC3`, which z-score is on record?
A: The z-score was 0.0711.

Q: How did the z-score turn out when `c1csc(CCNc2ncnc3sc4c(c23)CCC4)c1` was run?
A: Its z-score is -2.7.

Q: How did the z-score turn out when `Cc1cccc(OCCCSc2nc3ccc(C)cc3[nH]2)c1` was run?
A: Its z-score is -0.21.

Q: How did the z-score turn out when `CCN(CC)CCNC(=O)c1ccc(CS(=O)(=O)c2ccc(Br)cc2)o1` was run?
A: The z-score was -0.192.

Q: With `O=C(Nc1ccsc1C(=O)NC1CCCCC1)c1ccc(F)cc1` as the compound, how does the z-score read?
A: Its z-score is -0.191.

Q: Which z-score does the source give for `COc1ccc(-c2nc(Cn3c(SCc4ccccc4F)nc4ccncc43)c(C)o2)cc1` here?
A: The z-score was -0.489.

Q: How did the z-score turn out when `CCc1nc2c(oc3ccccc32)c(=O)[nH]1` was run?
A: The z-score was 0.0775.

Q: How did the z-score turn out when `COc1ccc(-n2c(N)c(C(=O)NCc3cccnc3)sc2=S)cc1` was run?
A: The z-score was 0.463.

Q: For `CN(c1ccc(O)cc1)c1nc(-c2ccccc2)cs1`, which z-score is on record?
A: The z-score was 0.237.

Q: For `CCCCn1c(SCC(=O)Nc2cc(C)on2)nc2ccccc2c1=O`, which z-score is on record?
A: Its z-score is -1.45.

Q: How did the z-score turn out when `COc1ccc(/C=C(\NC(=O)/C=C/c2ccco2)C(=O)NCCc2nc3ccccc3[nH]2)cc1` was run?
A: Its z-score is -0.23.

Q: How did the z-score turn out when `NC(=O)CN1C(=O)C(O)(CC(=O)c2ccccc2O)c2ccccc21` (stereo unspecified) was run?
A: The z-score was 0.483.

Q: With `CC(C)CNC(=O)c1cccc(C(=O)NCC(C)C)c1` as the compound, how does the z-score read?
A: Its z-score is -0.0332.

Q: `CN1CCN(CC(O)COc2ccc(OCC(O)CN3CCN(C)CC3)cc2)CC1` (stereo unspecified) was tested. Which z-score did it give?
A: The z-score was 1.63.

Q: Which z-score does the source give for `CN(Cc1ccccc1)S(=O)(=O)c1ccc(OCC(=O)Nc2cccc([N+](=O)[O-])c2)cc1` here?
A: The z-score was -0.459.

Q: `Cc1ccc2ccccc2c1COC(=O)c1nonc1N` was tested. Which z-score did it give?
A: The z-score was -0.143.

Q: `Cc1cc(Nc2nnnn2-c2ccccc2)n(-c2ccccc2)n1` was tested. Which z-score did it give?
A: Its z-score is 0.258.

Q: How did the z-score turn out when `O=C(c1ccccc1)N(c1ccccc1)C1C=CS(=O)(=O)C1` (stereo unspecified) was run?
A: The z-score was -0.0857.

Q: Which z-score does the source give for `CC12CC(NC(=O)N1c1cccc(C(=O)NCc3ccc4c(c3)OCO4)c1)c1cc(Cl)ccc1O2` (stereo unspecified) here?
A: Its z-score is 0.369.

Q: With `C(=N\NC(=Nc1ccccc1)c1ccccn1)/c1ccccn1` as the compound, how does the z-score read?
A: Its z-score is -0.0731.

Q: Which z-score does the source give for `Cc1ccc(NC(=O)/C(=C/c2cccs2)NC(=O)c2ccco2)c(C)c1` here?
A: Its z-score is -0.015.

Q: For `Fc1ccc(-n2cc(-c3ccccc3)c3c(NN4CCOCC4)ncnc32)cc1`, which z-score is on record?
A: The z-score was -0.464.

Q: How did the z-score turn out when `C=CCN1CC(c2nc3ccccc3n2Cc2cccc3ccccc23)CC1=O` (stereo unspecified) was run?
A: Its z-score is -0.17.

Q: With `Cc1onc(-c2c(Cl)cccc2Cl)c1C(=O)NCc1cccs1` as the compound, how does the z-score read?
A: The z-score was -0.0151.

Q: Which z-score does the source give for `CN(CC(=O)N1CCCC1)S(=O)(=O)c1cc(Cl)ccc1Cl` here?
A: Its z-score is -0.688.

Q: Which z-score does the source give for `COCCOCCOCCC(=O)NC1CC2CCC1(C)C2(C)C` (stereo unspecified) here?
A: The z-score was 0.0839.

Q: `CC(C)Oc1ccc(C(CC(=O)O)NC(=O)c2cccs2)cc1` (stereo unspecified) was tested. Which z-score did it give?
A: Its z-score is 0.0523.

Q: How did the z-score turn out when `CCOC(=O)c1sc(NC(=O)c2cc(-c3ccccc3)nc3ccccc23)c(C#N)c1C` was run?
A: The z-score was -0.494.

Q: Which z-score does the source give for `CC(Sc1nnc2ccccn12)C(=O)Nc1ncc(Cl)cc1Cl` (stereo unspecified) here?
A: Its z-score is 0.159.

Q: `Cc1[nH]c2ccccc2c1C(=O)CSC(=S)N(C)C1CCCCC1` was tested. Which z-score did it give?
A: The z-score was -0.169.

Q: How did the z-score turn out when `CCOc1ccc(Nc2nc(N3CCCCC3)nc(N3CCCCC3)n2)cc1` was run?
A: Its z-score is 1.13.

Q: For `O=C(CC1Nc2ccccc2NC1=O)NCC1COc2ccccc2O1` (stereo unspecified), which z-score is on record?
A: The z-score was 0.612.

Q: For `CC1CN(CCCCOc2ccc(C(C)C)cc2)CC(C)O1` (stereo unspecified), which z-score is on record?
A: Its z-score is 0.881.

Q: Which z-score does the source give for `CCCOc1ccccc1C1NC(=O)NC(C)=C1C(=O)OCCOCC` (stereo unspecified) here?
A: The z-score was -0.0351.

Q: For `CC1(C)CC(=O)N(CC(=O)O)c2ccccc2S1(=O)=O`, which z-score is on record?
A: The z-score was -0.22.

Q: `CCOC(=O)N1CCN(C(=O)c2ccc3c(c2)N(CC)CCS3)CC1` was tested. Which z-score did it give?
A: Its z-score is 0.39.

Q: How did the z-score turn out when `COc1ccc(OCCSc2nnc(C)n2-c2ccccc2)cc1` was run?
A: The z-score was 0.0666.

Q: How did the z-score turn out when `CCCn1c2ccccc2c2nnc(SCc3[nH]c(=O)[nH]c3C(=O)CCCCC(=O)OCC)nc21` was run?
A: Its z-score is -0.219.

Q: With `Brc1cc2[nH]cnc2c2ccccc12` as the compound, how does the z-score read?
A: Its z-score is 0.225.

Q: With `Cc1csc(NC(=O)CCCSc2nc3ccccc3s2)n1` as the compound, how does the z-score read?
A: Its z-score is -0.0589.

Q: Which z-score does the source give for `COC(=O)NCC1(C)CC(NC(=O)OC)CC(C)(C)C1` (stereo unspecified) here?
A: The z-score was 0.226.

Q: How did the z-score turn out when `Cc1ccc(Sc2oc(/C=N/n3cnnc3)cc2Br)cc1` was run?
A: Its z-score is 0.863.

Q: How did the z-score turn out when `Cc1cc(NC(=O)CCC(=O)N(c2cccnc2)C(C(=O)NC2CCCC2)c2ccccc2F)no1` (stereo unspecified) was run?
A: The z-score was 0.385.

Q: `Cc1nc2ccccc2n1CC(O)Cn1c(C(F)(F)F)nc2ccccc21` (stereo unspecified) was tested. Which z-score did it give?
A: Its z-score is 0.454.

Q: With `N/C(=N\OC(=O)Oc1ccccc1)c1ccc(Br)cc1` as the compound, how does the z-score read?
A: The z-score was -0.0306.

Q: `CCOC(=O)C1CCN(C(=O)c2ccccc2N(C)S(C)(=O)=O)CC1` was tested. Which z-score did it give?
A: The z-score was 0.472.

Q: `COc1cccc(OC)c1C(=O)N1CCOCC1` was tested. Which z-score did it give?
A: Its z-score is -0.00658.
